# Source: the supplement of paper PMC8728848
# This is one part of the list.
# B1: GSL-I (Griffonia simplicifolia) (protein)
# chain: FNLPNFWSDVKDNIIFQGDANTTAGTLQLCKTNQYGNPLQYRAGRALYSDPVQLWDNKTGSVASFYTEFTFFLKITGDGPADGLAFFLAPPDSDVKDAGAYLGLFNKSTATQPSKNQVVAVEFDTWKNTDFPEPSYRHIGINVNSIVSVATKRWEDSDIFSGKIATARISYDGSAKILTVVLSYPDGADYILSHSVDLSKNLPNPIRVGISASTGANQFLTVYVLSWRFSSALQSTSVNAAMGPEIIRTVV
# Key:
# Experiment in all cases: glycan array binding signal (z-score within array); higher = stronger binding
# Details in all cases: glycan notation: IUPAC condensed, linker removed
# [1] = target: Fuc(a1-2)[Gal(a1-3)]Gal(b1-4)GlcNAc(b1-2)Man
# In short: (§1)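 From the Consortium for Functional Glycomics database, 3228 arrays were curated, keeping only those whose protein sequence was available. Binding is given as a within-array Z-score averaged across arrays sharing a protein sequence and across linkers. Negative Z-scores can be read as non-binding.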
# [2] = target: Fuc(a1-2)[Gal(a1-3)]Gal(b1-4)GlcNAc(b1-2)Man(a1-3)[Fuc(a1-2)[Gal(a1-3)]Gal(b1-4)GlcNAc(b1-2)Man(a1-6)]Man(b1-4)GlcNAc(b1-4)GlcNAc
# In short: as §1
# [3] = target: Fuc(a1-2)[Gal(a1-3)]Gal(b1-4)GlcNAc(b1-2)Man(a1-3)[Fuc(a1-2)[Gal(a1-3)]Gal(b1-4)GlcNAc(b1-2)Man(a1-6)]Man(b1-4)GlcNAc(b1-4)[Fuc(a1-6)]GlcNAc
# In short: as §1
# [4] = target: Fuc(a1-2)[Gal(a1-3)]Gal(b1-4)GlcNAc(b1-3)GalNAc
# In short: as §1
# [5] = target: Fuc(a1-2)[Gal(a1-3)]Gal(b1-4)GlcNAc(b1-3)[Fuc(a1-2)[Gal(a1-3)]Gal(b1-4)GlcNAc(b1-6)]GalNAc
# In short: as §1
# [6] = target: Fuc(a1-2)[Gal(a1-3)]Gal(b1-4)GlcNAc(b1-6)GalNAc
# In short: as §1
# [7] = target: Fuc(a1-2)[Gal(a1-3)]Gal(b1-4)[Fuc(a1-3)]Glc
# In short: as §1
# [8] = target: Fuc(a1-2)[Gal(a1-3)]Gal(b1-4)[Fuc(a1-3)]GlcNAc
# In short: as §1
# [9] = target: Fuc(a1-2)[Gal(a1-3)]Gal(b1-4)[Fuc(a1-3)]GlcNAc(b1-3)GalNAc
# In short: as §1
# [10] = target: Fuc(a1-2)[Gal(a1-4)]Gal(b1-4)GlcNAc
# In short: as §1
# [11] = target: Fuc(a1-2)[GalNAc(a1-3)]Gal
# In short: as §1
# [12] = target: Fuc(a1-2)[GalNAc(a1-3)]Gal(b1-3)GalNAc(a1-3)[Fuc(a1-2)]Gal(b1-4)GlcNAc
# In short: as §1
# [13] = target: Fuc(a1-2)[GalNAc(a1-3)]Gal(b1-3)GalNAc(b1-3)Gal(a1-4)Gal(b1-4)Glc
# In short: as §1
# [14] = target: Fuc(a1-2)[GalNAc(a1-3)]Gal(b1-3)GlcNAc
# In short: as §1
# [15] = target: Fuc(a1-2)[GalNAc(a1-3)]Gal(b1-3)GlcNAc(b1-2)Man(a1-3)[Fuc(a1-2)[GalNAc(a1-3)]Gal(b1-3)GlcNAc(b1-2)Man(a1-6)]Man(b1-4)GlcNAc(b1-4)GlcNAc
# In short: as §1
# [16] = target: Fuc(a1-2)[GalNAc(a1-3)]Gal(b1-3)GlcNAc(b1-2)Man(a1-3)[Fuc(a1-2)[GalNAc(a1-3)]Gal(b1-3)GlcNAc(b1-2)Man(a1-6)]Man(b1-4)GlcNAc(b1-4)[Fuc(a1-6)]GlcNAc
# In short: as §1
# [17] = target: Fuc(a1-2)[GalNAc(a1-3)]Gal(b1-3)GlcNAc(b1-3)GalNAc
# In short: as §1
# [18] = target: Fuc(a1-2)[GalNAc(a1-3)]Gal(b1-3)GlcNAc(b1-6)GalNAc
# In short: as §1
# [19] = target: Fuc(a1-2)[GalNAc(a1-3)]Gal(b1-4)Glc
# In short: as §1
# [20] = target: Fuc(a1-2)[GalNAc(a1-3)]Gal(b1-4)GlcNAc
# In short: as §1
# [21] = target: Fuc(a1-2)[GalNAc(a1-3)]Gal(b1-4)GlcNAc(b1-2)Man
# In short: as §1
# [22] = target: Fuc(a1-2)[GalNAc(a1-3)]Gal(b1-4)GlcNAc(b1-2)Man(a1-3)[Fuc(a1-2)[GalNAc(a1-3)]Gal(b1-4)GlcNAc(b1-2)Man(a1-6)]Man(b1-4)GlcNAc(b1-4)GlcNAc
# In short: as §1
# [23] = target: Fuc(a1-2)[GalNAc(a1-3)]Gal(b1-4)GlcNAc(b1-2)Man(a1-3)[Fuc(a1-2)[GalNAc(a1-3)]Gal(b1-4)GlcNAc(b1-2)Man(a1-6)]Man(b1-4)GlcNAc(b1-4)[Fuc(a1-6)]GlcNAc
# In short: as §1
# [24] = target: Fuc(a1-2)[GalNAc(a1-3)]Gal(b1-4)GlcNAc(b1-3)Gal(b1-4)GlcNAc
# In short: as §1
# [25] = target: Fuc(a1-2)[GalNAc(a1-3)]Gal(b1-4)GlcNAc(b1-3)Gal(b1-4)GlcNAc(b1-3)Gal(b1-4)GlcNAc
# In short: as §1
# [26] = target: Fuc(a1-2)[GalNAc(a1-3)]Gal(b1-4)GlcNAc(b1-3)GalNAc
# In short: as §1
# [27] = target: Fuc(a1-2)[GalNAc(a1-3)]Gal(b1-4)GlcNAc(b1-3)[Fuc(a1-2)[GalNAc(a1-3)]Gal(b1-4)GlcNAc(b1-6)]GalNAc
# In short: as §1
# [28] = target: Fuc(a1-2)[GalNAc(a1-3)]Gal(b1-4)GlcNAc(b1-6)GalNAc
# In short: as §1
# [29] = target: Fuc(a1-2)[GalNAc(a1-3)]Gal(b1-4)[Fuc(a1-3)]GlcNAc
# In short: as §1
# [30] = target: Fuc(a1-2)[GalNAc(a1-3)]Gal(b1-4)[Fuc(a1-3)]GlcNAc(b1-3)GalNAc
# In short: as §1
# [31] = target: Fuc(a1-2)[GalNAc(a1-4)]Gal(b1-4)GlcNAc
# In short: as §1
# [32] = target: Fuc(a1-2)[GalNAc(b1-3)]Gal
# In short: as §1
# Fuc(a1-3)GlcNAc = target: Fuc(a1-3)GlcNAc
# In short: as §1
# [33] = target: Fuc(a1-3)[Gal(b1-4)]Glc6S
# In short: as §1
# [34] = target: Fuc(a1-3)[Gal(b1-4)]GlcNAc
# In short: as §1
# [35] = target: Fuc(a1-3)[Gal(b1-4)]GlcNAc(b1-2)Man
# In short: as §1
# [36] = target: Fuc(a1-3)[Gal(b1-4)]GlcNAc(b1-2)Man(a1-3)[Fuc(a1-3)[Gal(b1-4)]GlcNAc(b1-2)Man(a1-6)]Man(b1-4)GlcNAc(b1-4)GlcNAc
# In short: as §1
# [37] = target: Fuc(a1-3)[Gal(b1-4)]GlcNAc(b1-2)Man(a1-3)[Fuc(a1-3)[Gal(b1-4)]GlcNAc(b1-2)Man(a1-6)]Man(b1-4)GlcNAc(b1-4)[Fuc(a1-6)]GlcNAc
# In short: as §1
# [38] = target: Fuc(a1-3)[Gal(b1-4)]GlcNAc(b1-3)Gal(b1-3)[Fuc(a1-4)]GlcNAc
# In short: as §1
# [39] = target: Fuc(a1-3)[Gal(b1-4)]GlcNAc(b1-3)Gal(b1-4)[Fuc(a1-3)]GlcNAc
# In short: as §1
# [40] = target: Fuc(a1-3)[Gal(b1-4)]GlcNAc(b1-3)Gal(b1-4)[Fuc(a1-3)]GlcNAc(b1-3)Gal(b1-4)[Fuc(a1-3)]GlcNAc
# In short: as §1
# [41] = target: Fuc(a1-3)[Gal(b1-4)]GlcNAc(b1-3)GalNAc
# In short: as §1
# [42] = target: Fuc(a1-3)[Gal(b1-4)]GlcNAc(b1-4)Gal(b1-4)[Fuc(a1-3)]GlcNAc
# In short: as §1
# [43] = target: Fuc(a1-3)[Gal(b1-4)]GlcNAc(b1-4)Gal(b1-4)[Fuc(a1-3)]GlcNAc(b1-4)Gal(b1-4)[Fuc(a1-3)]GlcNAc
# In short: as §1
# [44] = target: Fuc(a1-3)[Gal(b1-4)]GlcNAc(b1-6)GalNAc
# In short: as §1
# [45] = target: Fuc(a1-3)[Gal(b1-4)]GlcNAc(b1-6)[Gal(b1-3)GlcNAc(b1-3)]Gal(b1-4)Glc
# In short: as §1
# [46] = target: Fuc(a1-3)[Gal(b1-4)]GlcNAc6S
# In short: as §1
# [47] = target: Fuc(a1-3)[Gal3S(b1-4)]Glc
# In short: as §1
# [48] = target: Fuc(a1-3)[Gal3S(b1-4)]GlcNAc
# In short: as §1
# [49] = target: Fuc(a1-3)[Gal3S(b1-4)]GlcNAc6S
# In short: as §1
# [50] = target: Fuc(a1-3)[GalNAc(b1-4)]GlcNAc
# In short: as §1
# [51] = target: Fuc(a1-3)[GalNAc(b1-4)]GlcNAc6S
# In short: as §1
# Fuc(a1-4)GlcNAc = target: Fuc(a1-4)GlcNAc
# In short: as §1
# Fuc(b1-3)GlcNAc = target: Fuc(b1-3)GlcNAc
# In short: as §1
# Gal(a1-2)Gal = target: Gal(a1-2)Gal
# In short: as §1
# Gal(a1-3)Gal = target: Gal(a1-3)Gal
# In short: as §1
# Gal(a1-3)Gal(b1-3)GlcNAc = target: Gal(a1-3)Gal(b1-3)GlcNAc
# In short: as §1
# [52] = target: Gal(a1-3)Gal(b1-3)GlcNAc(b1-2)Man
# In short: as §1
# [53] = target: Gal(a1-3)Gal(b1-3)GlcNAc(b1-2)Man(a1-3)[Gal(a1-3)Gal(b1-3)GlcNAc(b1-2)Man(a1-6)]Man(b1-4)GlcNAc(b1-4)GlcNAc
# In short: as §1
# [54] = target: Gal(a1-3)Gal(b1-3)GlcNAc(b1-3)GalNAc
# In short: as §1
binder,measurement,setting,value
B1,glycan array binding signal (z-score),[1],-0.253
same,glycan array binding signal (z-score),[2],0.691
same,glycan array binding signal (z-score),[3],-0.128
same,glycan array binding signal (z-score),[4],-0.175
same,glycan array binding signal (z-score),[5],-0.604
same,glycan array binding signal (z-score),[6],-0.15
same,glycan array binding signal (z-score),[7],-0.11
same,glycan array binding signal (z-score),[8],0.306
same,glycan array binding signal (z-score),[9],0.052
same,glycan array binding signal (z-score),[10],0.336
same,glycan array binding signal (z-score),[11],0.774
same,glycan array binding signal (z-score),[12],-0.239
same,glycan array binding signal (z-score),[13],-0.221
same,glycan array binding signal (z-score),[14],-0.175
same,glycan array binding signal (z-score),[15],-0.248
same,glycan array binding signal (z-score),[16],-0.206
same,glycan array binding signal (z-score),[17],0.545
same,glycan array binding signal (z-score),[18],-0.322
same,glycan array binding signal (z-score),[19],-0.065
same,glycan array binding signal (z-score),[20],0.486
same,glycan array binding signal (z-score),[21],0.033
same,glycan array binding signal (z-score),[22],0.123
same,glycan array binding signal (z-score),[23],-0.155
same,glycan array binding signal (z-score),[24],0.123
same,glycan array binding signal (z-score),[25],0.34
same,glycan array binding signal (z-score),[26],-0.288
same,glycan array binding signal (z-score),[27],0.012
same,glycan array binding signal (z-score),[28],0.92
same,glycan array binding signal (z-score),[29],0.325
same,glycan array binding signal (z-score),[30],-0.031
same,glycan array binding signal (z-score),[31],7.04
same,glycan array binding signal (z-score),[32],-0.188
same,glycan array binding signal (z-score),Fuc(a1-3)GlcNAc,-0.259
same,glycan array binding signal (z-score),[33],-0.16
same,glycan array binding signal (z-score),[34],-0.211
same,glycan array binding signal (z-score),[35],-0.31
same,glycan array binding signal (z-score),[36],-0.232
same,glycan array binding signal (z-score),[37],-0.063
same,glycan array binding signal (z-score),[38],-0.124
same,glycan array binding signal (z-score),[39],-0.17
same,glycan array binding signal (z-score),[40],-0.188
same,glycan array binding signal (z-score),[41],-0.19
same,glycan array binding signal (z-score),[42],-0.311
same,glycan array binding signal (z-score),[43],-0.302
same,glycan array binding signal (z-score),[44],-0.081
same,glycan array binding signal (z-score),[45],-0.173
same,glycan array binding signal (z-score),[46],0.034
same,glycan array binding signal (z-score),[47],-0.14
same,glycan array binding signal (z-score),[48],-0.114
same,glycan array binding signal (z-score),[49],-0.13
same,glycan array binding signal (z-score),[50],0.055
same,glycan array binding signal (z-score),[51],0.107
same,glycan array binding signal (z-score),Fuc(a1-4)GlcNAc,-0.215
same,glycan array binding signal (z-score),Fuc(b1-3)GlcNAc,-0.236
same,glycan array binding signal (z-score),Gal(a1-2)Gal,1.41
same,glycan array binding signal (z-score),Gal(a1-3)Gal,0.597
same,glycan array binding signal (z-score),Gal(a1-3)Gal(b1-3)GlcNAc,0.629
same,glycan array binding signal (z-score),[52],0.712
same,glycan array binding signal (z-score),[53],0.005
same,glycan array binding signal (z-score),[54],-0.059
